Source: PubChem BioAssay AID1345083 (National Center for Advancing Translational Sciences (NCATS), 2018)
Out of some 94,000 compounds screened, about 6,200 (6.6%) were called active. Inconclusive means that the source gave no clear call. Such entries were picked first, then a sample of the others. Calls come from the whole dose curve; as a rule, active = well fitted inhibition curve with a large enough effect; inconclusive = small, poorly fitted or top-dose-only effect; inactive = flat fitted curve, though single readings scatter. A potency beside an inconclusive call is a rough fit, not a confirmed value.

test: Cytotoxic Profiling in HEK 293 Cell Line of Diverse Libraries Using Quantitative High-Throughput Screening; details: HEK 293 viability, ATP luminescence (CellTiter-Glo), 48-72 h; series mostly up to 115 µM; note: nearly all actives have a fitted effect of over 60% in size
Summary of the method: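 HEK 293 cells at 250 cells/well were exposed to compounds by pintool transfer for 48 or 72 hr at 37 degree Celsius, 5% CO2. Viability was read as ATP-coupled luminescence with CellTiter-Glo after 10 min at room temperature.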
Potency is the fitted concentration of half-maximal effect; tags give direction and shape of the fitted curve.

SMILES	Potency
COc1ccc(-n2c(=O)c3c(n2Cc2ccccc2)CN(Cc2c[nH]c4ccccc24)CC3)cc1	inconclusive: 79.4 µM [inhibitor, partial curve, poor fit]
CCCc1cc(C(=O)N2CCOC(c3ccc(Cl)c(Cl)c3)C2)ccn1 (stereo not given)	inconclusive: 50.1 µM [inhibitor, partial curve, poor fit]
COc1cccc(-c2cccc(C(=O)N3C[C@H](CO)C[C@H](CN(C)C)C3)c2)c1	inactive
CNC(=O)[C@H]1CN(C(=O)c2cc3ccccc3s2)[C@]2(C)C(=O)N(C)c3ccccc3[C@H]12	inconclusive: 39.8 µM [inhibitor, single point]
COc1ccccc1-c1cnc2n[nH]c(-c3sccc3C)c2n1	active: 89.1 µM
O=c1cc(-c2ccccn2)oc2c(-c3cn[nH]c3)nccc12	inconclusive: 126 µM [inhibitor, partial curve, poor fit]
Cc1nc(C2CC(NC(=O)c3cnc(N)nc3C(F)(F)F)C2)cc(=O)[nH]1 (stereo not given)	inactive
COCCN1CC(CO)C2(CCN(C(=O)COc3cccc(C)c3)CC2)C1 (stereo not given)	inconclusive: 79.4 µM [inhibitor, partial curve]
CCc1c(C(=O)N2CCC3(CC2)c2ccccc2CC3O)csc1C (stereo not given)	inconclusive: 50.1 µM [inhibitor, partial curve, poor fit]
CCOC1CCOC2(CCN(C(=O)c3ccncc3)CC2)C1 (stereo not given)	inactive
OC1(c2csc(CN3CCOCC3)n2)CCN(Cc2ccccc2C(F)(F)F)CC1	inactive
CCc1nc2nccc(-c3ccc4c(c3)OCCCO4)n2n1	inconclusive: 50.1 µM [inhibitor, partial curve, poor fit]
Cc1ccc(C(=O)N2CCN(c3cc(-c4ccccc4)[nH]n3)CC2)cc1F	inconclusive: 50.1 µM [inhibitor, partial curve, poor fit]
COc1ccc(-c2noc(-c3cccn3CC(=O)NC(C)C)n2)cc1F	inconclusive: 79.4 µM [inhibitor, single point]
CCc1noc(-c2cn(C3CCN(C(=O)Cc4cccc(OC)c4)CC3)nn2)n1	inactive
COC(=O)NC1CCN(c2nccc(Nc3ccccc3OC)n2)CC1	active: 50.1 µM
COc1ccc(C(=O)N2CCC(n3cc(-c4nc(C(C)C)no4)nn3)CC2)c(OC)c1	inconclusive: 50.1 µM [inhibitor, partial curve, poor fit]
Clc1cc(NCCOc2ccccc2)n2nccc2n1	inconclusive: 79.4 µM [inhibitor, partial curve, poor fit]
O=C(Nc1ccc(Cl)cc1)C1=NO[C@@H]2CN(c3ccccc3)C[C@H]12	inconclusive: 112 µM [inhibitor, single point]
Cc1ccc([S+](=O)([O-])N2CCC(C(=O)N3CCC4(CC3)CC(=O)Nc3ccccc3O4)CC2)cc1	inconclusive: 50.1 µM [inhibitor, partial curve, poor fit]
O=C1NCCC[C@@H]1NC(=O)[C@@H]1CN(C(=O)c2cccc(F)c2)CCN1C(=O)c1cnccn1	inactive
Fc1ccc(CN2CCOC[C@H]2c2ncc(-c3ccc(F)cc3)[nH]2)cc1	inconclusive: 70.8 µM [inhibitor, full curve, poor fit]

SMILES	Potency
Cc1ccc(C(=O)N2CCC3(CC2)CC(CO)N(C(=O)c2ccccc2)C3)s1 (stereo not given)	inactive
CC1(c2ccccc2)N(Cc2ccc(O)cc2)C(=O)OC12CCN(C(=O)Cc1ccccc1)CC2 (stereo not given)	inconclusive: 63.1 µM [inhibitor, partial curve, poor fit]
Cc1nc(C)c(C(=O)NCCc2noc(-c3ccncc3)n2)s1	inconclusive: 17.8 µM [inhibitor, full curve]
Cc1ccc(S(=O)(=O)N2CCc3nc(N(C)Cc4cccnc4)[nH]c(=O)c3CC2)cc1	inconclusive: 31.6 µM [inhibitor, partial curve]
O=C(CCC1CCN(C(=O)c2ccccc2Cl)CC1)N1CCc2ccccc2C1	inconclusive: 44.7 µM [inhibitor, partial curve, poor fit]
CC(C)C[C@@H]1N[C@H](C(=O)NCc2ccc(F)cc2)Cc2cn(C)c3cccc1c23	active: 70.8 µM
O=C(Nc1ccc([C@@H](O)[C@H]2COCC(=O)N2Cc2ccc(F)cc2)cc1)c1cnccn1	inconclusive: 89.1 µM [inhibitor, single point]
O=C(O)c1cccc2c1CCN2S(=O)(=O)c1ccccc1	inactive
COc1ccc(CNC(=O)[C@@H]2CCC[C@@H](NCc3ccc(C(F)(F)F)cc3)CN(C)C(=O)C2)cc1	inconclusive: 39.8 µM [inhibitor, partial curve]
CCOc1cc(=O)n2c(c1C(=O)Nc1cc(F)ccc1F)CCCC2	inconclusive: 100 µM [inhibitor, single point]
CCN1c2cc(C(=O)N3CCN(c4ccc(F)cc4)CC3)ccc2C(=O)N2CCCCC21 (stereo not given)	active: 44.7 µM
COc1cccc(CN2CCC(N3C(=O)C(OCC4CC4)C34CCCCC4)CC2)c1OC (stereo not given)	inconclusive: 50.1 µM [inhibitor, partial curve, poor fit]
COc1cc(NC(=O)c2ccc3c(c2)N(C)C2CCCN2C3=O)cc(OC)c1OC (stereo not given)	inactive
CC(c1cccs1)N(C)C(=O)Cc1ccc(F)cc1 (stereo not given)	inconclusive: 126 µM [inhibitor, single point]
O=C(c1nnn2c1COC(c1ccccc1)C2)N1CCN(C(=O)c2cccc3[nH]ccc23)CC1 (stereo not given)	inconclusive: 50.1 µM [inhibitor, partial curve, poor fit]
CN(Cc1cccnc1)Cc1nc(C2(O)CCN(Cc3ccccc3C(F)(F)F)CC2)cs1	active: 44.7 µM
CC(C)c1nncn1C1CCN(S(=O)(=O)c2cccc(Br)c2)CC1	inconclusive: 25.1 µM [inhibitor, full curve]
CCc1nc2nccc(-c3ccc(OC)c(OC)c3)n2n1	inconclusive: 79.4 µM [inhibitor, single point]
O=C([C@H]1CCCN1C(=O)Cc1cccc(Cl)c1)N1CCCC(c2nc3ccncc3[nH]2)C1 (stereo not given in full)	inactive
CN1[C@H](CO)C[C@H](CNC(=O)c2cn(CCN)nn2)[C@@H]1c1ccccc1F	inactive
Cc1ccc(C(=O)N2CCCC2C(=O)N2CCC(N3CCCC3=O)CC2)cc1 (stereo not given)	inactive
COc1ccc(C2Cn3nnc(-c4noc(-c5cccc(Cl)c5)n4)c3CO2)cc1 (stereo not given)	inactive

SMILES	Potency
COc1ccccc1CC(=O)N1CCC[C@H]1c1nc(-c2ccccc2)no1	inconclusive: 79.4 µM [inhibitor, partial curve, poor fit]
O=C(NCc1cccs1)c1ccc2nnc(CC3CC3)n2c1	inactive
CCc1nc2c(c(-c3ccc(O)cc3)n1)CN(C(=O)c1ccccc1)CC2	inactive
Cc1nc(CCNC(=O)C2CCCN(c3nc(-c4ccccc4)nc4c3CCC4)C2)n[nH]1 (stereo not given)	inactive
O=C(NCc1ccc(C(F)(F)F)cc1)C1CCCN(Cc2cccc(-c3cccs3)c2)C1 (stereo not given)	inconclusive: 20 µM [inhibitor, full curve, poor fit]
C=CCO[C@@H]1C[C@H]2C(=O)Nc3ccc(-c4ccc(F)cc4F)cc3C(=O)N2C1	inconclusive: 56.2 µM [inhibitor, partial curve, poor fit]
Cc1ccc(CN2CCn3nnc(CCC(=O)NCc4ccccc4)c3C2)o1	inconclusive: 89.1 µM [inhibitor, single point]
Cc1cnc(C)c(-c2cc(O)c3c(c2)CN(C(=O)c2ccncn2)CCO3)n1	inactive
CN1Cc2ccc(Nc3ccccc3)nc2C(C)(C(=O)NCCc2cnc[nH]2)C1 (stereo not given)	inconclusive: 112 µM [inhibitor, partial curve, poor fit]
CC[C@H]1CN(C(=O)c2ccc(F)cc2)CC[C@H]1CC(=O)Nc1ccccc1	inconclusive: 126 µM [inhibitor, single point]
Cc1nn2c(c1-c1ccccc1-c1ccccc1)N(C(=O)COc1ccccc1)CCC2	inconclusive: 126 µM [inhibitor, single point]
Cc1nc2cnccn2c1C(=O)NC1CC1	inconclusive: 112 µM [inhibitor, partial curve, poor fit]
CN1C[C@@H](NC(=O)Nc2cccc(C#N)c2)C[C@H]1c1nc(-c2ccncc2)no1	inconclusive: 112 µM [inhibitor, partial curve, poor fit]
Cc1cnc(CCNS(=O)(=O)c2ccc(C#N)cc2)n1C1CC1	inconclusive: 44.7 µM [inhibitor, partial curve]
Cc1ccc([S+](=O)([O-])NC2CCN(c3ccc4nnc(C5CC5)n4n3)C2)cc1 (stereo not given)	inconclusive: 50.1 µM [inhibitor, partial curve, poor fit]
O=C(CN1CCN(C(=O)c2cc3c(s2)CN(C2CCCC2)C3)CC1)N1CCCC1	inactive
Cc1nn2c(c1-c1ccccc1OCc1ccccc1)N(Cc1ccccc1)CCC2	inconclusive: 50.1 µM [inhibitor, partial curve, poor fit]
CN(c1ccccc1)c1ccc2nnc(-c3cc(C(=O)NCC4CCCO4)ccn3)n2n1 (stereo not given)	inactive
O=C(NC1CCN(c2cc(-c3cccs3)[nH]n2)CC1)c1cccc(F)c1	inconclusive: 50.1 µM [inhibitor, partial curve, poor fit]
CCc1cccc(-n2ccnc2-c2cc3n(n2)CCNC3)c1	inconclusive: 89.1 µM [inhibitor, single point]
CCCC(=O)N1Cc2ccccc2CC2(CCN(Cc3ccccn3)C2)C1 (stereo not given)	inactive
